According to patent US20250019376A1, “CHROMANE AMIDINE MONOBACTAM ANTIBIOTICS” (priority 2021, published 2025):
At least one read-out could not be matched to a standard name with certainty.

How the values were obtained:
Details in all cases: lowest concentration inhibiting 95% of growth (OD600); with BLi relebactam 4 μg/mL; 22 hours, 35±2° C.
[1] = test system: Acinetobacter baumannii expressing TEM-1, AmpC, and Oxa-24/40 (CL6188); assay type: cell-based
[2] = test system: Pseudomonas aeruginosa expressing AmpC (CL5701); test: Growth inhibitory concentration (OD600), P. aeruginosa CL5701; assay type: cell-based
[3] = test system: Escherichia co/i expressing NDM-1 (CLB30016); test: Growth inhibitory concentration (OD600), E. coli CLB30016; assay type: cell-based, Escherichia coli
[4] = test system: Klebsiella pneumoniae expressing KPC-1 (CL6569); test: Growth inhibitory concentration (OD600), K. pneumoniae CL6569; assay type: cell-based

CC1(C)[C@H](NC(=O)/C(=N\O[C@](C)(C(=O)O)[C@H]2CCc3cc(C(=N)N[C@H]4C[C@@H](CN)C4)ccc3O2)c2csc(N)n2)C(=O)N1OS(=O)(=O)O [Compound 112, (S)-2-((R)-6-(N-((1s,3S)-3-(aminomethyl)cyclobutyl)carbamimidoyl)chroman-2-yl)-2-((((Z)-1-(2-aminothiazol-4-yl)-2-(((S)-2,2-dimethyl-4-oxo-1-(sulfooxy)azetidin-3-yl)amino)-2-oxoethylidene)amino)oxy)propanoic acid]
AB_CL6188 MITC95 [1]: 4.688 µM | PA_CL5701 MITC95 [2]: 1.563 µM | EC_CLB30016 MITC95 [3]: 4.688 µM | KP_CL6569 MITC95 [4]: 0.3906 µM

CC1(C)[C@H](NC(=O)/C(=N\O[C@](C)(C(=O)O)[C@H]2CCc3cc(C(=N)N[C@@H]4CCC[C@@H](N)C4)ccc3O2)c2csc(N)n2)C(=O)N1OS(=O)(=O)O [Compound 108, (S)-2-((R)-6-(N-((1R,3R)-3-aminocyclohexyl)carbamimidoyl)chroman-2-yl)-2-((((Z)-1-(2-aminothiazol-4-yl)-2-(((S)-2,2-dimethyl-4-oxo-1-(sulfooxy)azetidin-3-yl)amino)-2-oxoethylidene)amino)oxy)propanoic acid]
AB_CL6188 MITC95 [1]: 6.25 µM | PA_CL5701 MITC95 [2]: 1.563 µM | EC_CLB30016 MITC95 [3]: 3.125 µM | KP_CL6569 MITC95 [4]: 0.3906 µM

CC1(C)[C@H](NC(=O)/C(=N\O[C@](C)(C(=O)O)[C@H]2CCc3cc(C(=N)N[C@H]4CCC[C@@H](N)C4)ccc3O2)c2csc(N)n2)C(=O)N1OS(=O)(=O)O [Compound 111, (S)-2-((R)-6-(N-((1S,3R)-3-aminocyclohexyl)carbamimidoyl)chroman-2-yl)-2-((((Z)-1-(2-aminothiazol-4-yl)-2-(((S)-2,2-dimethyl-4-oxo-1-(sulfooxy)azetidin-3-yl)amino)-2-oxoethylidene)amino)oxy)propanoic acid]
AB_CL6188 MITC95 [1]: 3.125 µM | PA_CL5701 MITC95 [2]: 0.7813 µM | EC_CLB30016 MITC95 [3]: 3.125 µM | KP_CL6569 MITC95 [4]: 0.3906 µM

CNC[C@H]1CC[C@H](NC(=N)c2ccc3c(c2)CC[C@H]([C@](C)(O/N=C(\C(=O)N[C@@H]2C(=O)N(OS(=O)(=O)O)C2(C)C)c2csc(N)n2)C(=O)O)O3)CC1 [Compound 103, (S)-2-((((Z)-1-(2-aminothiazol-4-yl)-2-(((S)-2,2-dimethyl-4-oxo-1-(sulfooxy)azetidin-3-yl)amino)-2-oxoethylidene)amino)oxy)-2-((R)-6-(N-((1r,4R)-4-((methylamino)-methyl)cyclohexyl)carbamimidoyl)chroman-2-yl)propanoic acid]
AB_CL6188 MITC95 [1]: 3.125 µM | PA_CL5701 MITC95 [2]: 1.563 µM | EC_CLB30016 MITC95 [3]: 6.25 µM | KP_CL6569 MITC95 [4]: 0.3906 µM

Cc1cc2c(cc1C(=N)N[C@H]1C[C@@H](N)C1)CC[C@H]([C@](C)(O/N=C(\C(=O)N[C@@H]1C(=O)N(OS(=O)(=O)O)C1(C)C)c1csc(N)n1)C(=O)O)O2 [Compound 134, (S)-2-((R)-6-(N-((1s,3S)-3-aminocyclobutyl)carbamimidoyl)-7-methylchroman-2-yl)-2-((((Z)-1-(2-aminothiazol-4-yl)-2-(((S)-2,2-dimethyl-4-oxo-1-(sulfooxy)azetidin-3-yl)amino)-2-oxoethylidene)amino)oxy)propanoic acid]
AB_CL6188 MITC95 [1]: 6.25 µM | PA_CL5701 MITC95 [2]: 1.563 µM | EC_CLB30016 MITC95 [3]: 25 µM | KP_CL6569 MITC95 [4]: 0.7813 µM

CC1(C)[C@H](NC(=O)/C(=N\O[C@](C)(C(=O)O)[C@H]2CCc3cc(C(=N)N[C@H]4C[C@]5(CCN5)C4)ccc3O2)c2csc(N)n2)C(=O)N1OS(=O)(=O)O [Compound 18, (S)-2-((R)-6-(N-((4S,6r)-1-azaspiro[3.3]heptan-6-yl)carbamimidoyl)chroman-2-yl)-2-((((Z)-1-(2-aminothiazol-4-yl)-2-(((S)-2,2-dimethyl-4-oxo-1-(sulfooxy)azetidin-3-yl)amino)-2-oxo-ethylidene)amino)oxy)propanoic acid]
AB_CL6188 MITC95 [1]: 3.125 µM | PA_CL5701 MITC95 [2]: 1.563 µM | EC_CLB30016 MITC95 [3]: 6.25 µM | KP_CL6569 MITC95 [4]: 0.3906 µM

CC1(C)[C@H](NC(=O)/C(=N\O[C@](C)(C(=O)O)[C@H]2CCc3cc(C(=N)NC4CC5(C4)C[C@@H]5N)ccc3O2)c2csc(N)n2)C(=O)N1OS(=O)(=O)O (single isomer, unassigned) [Compound 122]
AB_CL6188 MITC95 [1]: 6.25 µM | PA_CL5701 MITC95 [2]: 1.563 µM | EC_CLB30016 MITC95 [3]: 12.5 µM | KP_CL6569 MITC95 [4]: 0.3906 µM

CC1(C)[C@H](NC(=O)/C(=N\O[C@](C)(C(=O)O)[C@H]2CCc3cc(C(=N)N[C@H]4CC[C@@](C)(N)CC4)ccc3O2)c2csc(N)n2)C(=O)N1OS(=O)(=O)O [Compound 58, (S)-2-((R)-6-(N-((1s,4S)-4-amino-4-methylcyclohexyl)carbamimidoyl)chroman-2-yl)-2-((((Z)-1-(2-aminothiazol-4-yl)-2-(((S)-2,2-dimethyl-4-oxo-1-(sulfooxy)azetidin-3-yl)amino)-2-oxoethylidene)amino)oxy)propanoic acid]
AB_CL6188 MITC95 [1]: 6.25 µM | PA_CL5701 MITC95 [2]: 3.125 µM | EC_CLB30016 MITC95 [3]: 6.25 µM | KP_CL6569 MITC95 [4]: 0.7813 µM

CC1(C)[C@H](NC(=O)/C(=N\O[C@](C)(C(=O)O)[C@H]2CCc3cc(C(=N)N[C@H]4C[C@](N)(C(O)CO)C4)ccc3O2)c2csc(N)n2)C(=O)N1OS(=O)(=O)O (stereo partly drawn) [Compound 101, (S)-2-((R)-6-(N-((1R,3S)-3-amino-3-((S)-1,2-dihydroxyethyl)-cyclobutyl)carbamimidoyl)chroman-2-yl)-2-((((Z)-1-(2-aminothiazol-4-yl)-2-(((S)-2,2-dimethyl-4-oxo-1-(sulfooxy)azetidin-3-yl)amino)-2-oxoethylidene)amino)-oxy)propanoic acid]
AB_CL6188 MITC95 [1]: 12.5 µM | PA_CL5701 MITC95 [2]: 1.563 µM | EC_CLB30016 MITC95 [3]: 6.25 µM | KP_CL6569 MITC95 [4]: 0.3906 µM

CC1(C)[C@H](NC(=O)/C(=N\O[C@](C)(C(=O)O)[C@H]2CCc3cc(C(=N)NC4(CCCN)CC4)ccc3O2)c2csc(N)n2)C(=O)N1OS(=O)(=O)O [Compound 139, (S)-2-((R)-6-(N-(1-(3-aminopropyl)cyclopropyl)carbamimidoyl)chroman-2-yl)-2-((((Z)-1-(2-aminothiazol-4-yl)-2-(((S)-2,2-dimethyl-4-oxo-1-(sulfooxy)azetidin-3-yl)amino)-2-oxoethylidene)amino)oxy)propanoic acid]
AB_CL6188 MITC95 [1]: 12.5 µM | PA_CL5701 MITC95 [2]: 1.563 µM | EC_CLB30016 MITC95 [3]: 6.25 µM | KP_CL6569 MITC95 [4]: 0.7813 µM

CC1(C)[C@H](NC(=O)/C(=N\O[C@](C)(C(=O)O)[C@H]2CCc3cc(C(=N)NC4(CCN)CC4)ccc3O2)c2csc(N)n2)C(=O)N1OS(=O)(=O)O [Compound 138, (S)-2-((R)-6-(N-(1-(2-aminoethyl)cyclopropyl)carbamimidoyl)chroman-2-yl)-2-((((Z)-1-(2-aminothiazol-4-yl)-2-(((S)-2,2-dimethyl-4-oxo-1-(sulfooxy)azetidin-3-yl)amino)-2-oxoethylidene)amino)oxy)propanoic acid]
AB_CL6188 MITC95 [1]: 6.25 µM | PA_CL5701 MITC95 [2]: 1.563 µM | EC_CLB30016 MITC95 [3]: 25 µM | KP_CL6569 MITC95 [4]: 0.7813 µM

CC1(C)[C@H](NC(=O)/C(=N\O[C@](C)(C(=O)O)[C@H]2CCc3cc(C(=N)N[C@H]4CC[C@@H](N)[C@@H]5C[C@@H]54)ccc3O2)c2csc(N)n2)C(=O)N1OS(=O)(=O)O (single isomer, unassigned) [Compound 26]
AB_CL6188 MITC95 [1]: 6.25 µM | PA_CL5701 MITC95 [2]: 1.563 µM | EC_CLB30016 MITC95 [3]: 6.25 µM | KP_CL6569 MITC95 [4]: 0.3906 µM

CC1(C)[C@H](NC(=O)/C(=N\O[C@](C)(C(=O)O)[C@H]2CCc3cc(C(=N)N[C@H]4CC[C@@](N)(CCO)CC4)ccc3O2)c2csc(N)n2)C(=O)N1OS(=O)(=O)O [Compound 66, (S)-2-((R)-6-(N-((1r,4R)-4-amino-4-(2-hydroxyethyl)cyclohexyl)carbamimidoyl)chroman-2-yl)-2-((((Z)-1-(2-aminothiazol-4-yl)-2-(((S)-2,2-dimethyl-4-oxo-1-(sulfooxy)azetidin-3-yl)amino)-2-oxoethylidene)amino)oxy)propanoic acid]
AB_CL6188 MITC95 [1]: 3.125 µM | PA_CL5701 MITC95 [2]: 1.563 µM | EC_CLB30016 MITC95 [3]: 3.125 µM | KP_CL6569 MITC95 [4]: 0.7813 µM

CC1(C)[C@H](NC(=O)/C(=N\O[C@](C)(C(=O)O)[C@H]2CCc3cc(C(=N)NC4CCN(C[C@@H](O)CN)CC4)ccc3O2)c2csc(N)n2)C(=O)N1OS(=O)(=O)O [Compound 30, (S)-2-((R)-6-(N-(1-((S)-3-amino-2-hydroxypropyl)piperidin-4-yl)carbamimidoyl)chroman-2-yl)-2-((((Z)-1-(2-aminothiazol-4-yl)-2-(((S)-2,2-dimethyl-4-oxo-1-(sulfooxy)azetidin-3-yl)amino)-2-oxoethylidene)amino)oxy)propanoic acid]
AB_CL6188 MITC95 [1]: 3.125 µM | PA_CL5701 MITC95 [2]: 0.7813 µM | EC_CLB30016 MITC95 [3]: 2.344 µM | KP_CL6569 MITC95 [4]: 0.1953 µM

CC1(C)[C@H](NC(=O)/C(=N\O[C@](C)(C(=O)O)[C@H]2CCc3cc(C(=N)N[C@]4(C)C[C@H](N)C4)ccc3O2)c2csc(N)n2)C(=O)N1OS(=O)(=O)O [Compound 85, (S)-2-((R)-6-(N-((1s,3S)-3-amino-1-methylcyclobutyl)carbamimidoyl)chroman-2-yl)-2-((((Z)-1-(2-aminothiazol-4-yl)-2-(((S)-2,2-dimethyl-4-oxo-1-(sulfooxy)azetidin-3-yl)amino)-2-oxoethylidene)amino)oxy)propanoic acid]
AB_CL6188 MITC95 [1]: 6.25 µM | PA_CL5701 MITC95 [2]: 1.563 µM | EC_CLB30016 MITC95 [3]: 12.5 µM | KP_CL6569 MITC95 [4]: 0.3906 µM
